# Source: PMC4336329 (PLoS ONE, 2015)
# The campaign covered roughly 310,000 compounds. About 2,200 (0.71%) showed an effect of 50% or more. The effect is printed as a negative number. Some of the results follow.
# Molecular target: human ether-à-go-go-related gene (hERG) potassium channel (human, UniProt Q12809)
# Test: primary screen, population patch clamp on CHO cells stably expressing hERG
# Chain of human ether-à-go-go-related gene (hERG) potassium channel (Q12809 whole entry, looked up): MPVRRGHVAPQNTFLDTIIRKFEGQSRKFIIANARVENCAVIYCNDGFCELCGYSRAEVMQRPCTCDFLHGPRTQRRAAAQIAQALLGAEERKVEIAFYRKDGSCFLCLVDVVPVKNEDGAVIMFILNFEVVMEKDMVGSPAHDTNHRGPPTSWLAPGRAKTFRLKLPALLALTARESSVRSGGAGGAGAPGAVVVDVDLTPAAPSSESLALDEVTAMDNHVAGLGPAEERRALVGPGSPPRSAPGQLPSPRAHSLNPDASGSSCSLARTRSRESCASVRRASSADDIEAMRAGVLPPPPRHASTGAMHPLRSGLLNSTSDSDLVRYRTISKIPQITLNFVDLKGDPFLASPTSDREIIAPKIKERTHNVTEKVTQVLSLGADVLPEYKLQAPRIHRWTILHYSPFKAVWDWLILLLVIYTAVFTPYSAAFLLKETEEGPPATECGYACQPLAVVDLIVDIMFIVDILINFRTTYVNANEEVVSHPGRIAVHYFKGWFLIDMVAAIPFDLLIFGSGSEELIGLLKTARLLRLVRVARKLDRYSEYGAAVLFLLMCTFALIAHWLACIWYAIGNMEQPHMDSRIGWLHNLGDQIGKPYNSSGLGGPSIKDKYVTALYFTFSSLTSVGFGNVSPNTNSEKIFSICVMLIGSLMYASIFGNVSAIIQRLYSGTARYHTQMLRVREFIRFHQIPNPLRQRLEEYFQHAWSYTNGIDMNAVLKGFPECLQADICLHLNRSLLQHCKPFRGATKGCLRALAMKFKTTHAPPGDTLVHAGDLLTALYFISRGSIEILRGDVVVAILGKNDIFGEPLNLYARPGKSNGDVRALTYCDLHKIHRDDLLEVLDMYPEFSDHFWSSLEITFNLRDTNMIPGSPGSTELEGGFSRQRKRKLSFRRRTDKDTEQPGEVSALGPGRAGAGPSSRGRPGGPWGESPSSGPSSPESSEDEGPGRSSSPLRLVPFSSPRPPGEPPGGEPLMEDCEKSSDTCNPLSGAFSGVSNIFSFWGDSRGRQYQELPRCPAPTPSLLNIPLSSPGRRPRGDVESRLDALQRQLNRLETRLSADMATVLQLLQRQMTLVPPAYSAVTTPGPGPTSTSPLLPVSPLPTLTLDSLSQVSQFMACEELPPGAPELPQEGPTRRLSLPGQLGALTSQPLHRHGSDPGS
row,SMILES,"hERG current change (%, negative = inhibition) at 1uM [%]"
1,Cn1c(SCc2ccccn2)nnc1-c1ccccc1,11.5
2,O=C(Nc1ccc(Cl)cc1F)C1CCN(S(=O)(=O)c2cccc3nonc23)CC1,14.4
3,CC1=C(C(=O)OCc2ccccc2)C(c2ccccc2-c2ccccc2)NC(=O)N1CCCCCC(=O)O (centres unmarked),1.7
4,Cc1ccc(C(C)C)cc1C(=O)CC1(O)C(=O)N(C)c2ccccc21 (centres unmarked),14.3
5,COc1ccc(N2CCN(C(=S)Nc3cccc(C)c3C)CC2)cc1,9.51
6,O=C(CC1C(=O)NCCN1Cc1ccccc1C(F)(F)F)NC1CCCCC1 (centres unmarked),8.9
7,CCOc1ccc(CCNC(=O)COC(=O)COc2ccc(C(C)=O)cc2)cc1OCC,6.42
8,COc1ccc(C(=O)c2ccc(OC)c3cccc(O)c23)cc1OC,6.75
9,O=C(CN1C(=O)CC(c2ccccc2)S(=O)(=O)c2ccccc21)N1CCOCC1 (centres unmarked),6.88
10,COc1cccc(NC(=O)c2ccnc(N3CCC(C(=O)NCc4ccccc4OC)CC3)c2)c1,6.15
11,COc1ccc2cc3cc(C(=O)N4CCN(c5ccccn5)CC4)oc3nc2c1,1.46
12,COc1ccccc1-n1c(=O)c2c3c(sc2n2c(SC)nnc12)CCC3,6.38
13,CCS(=O)(=O)N1CCN(Cc2ccc([N+](=O)[O-])cc2)CC1.O=C(O)C(=O)O,9.38
14,C/C=C/c1ccc(OCC(O)CN2CCCCC2CC)c(OC)c1 (centres unmarked),0.289
15,CC1(c2nnc(-c3ccccc3)o2)CC(c2ccccc2)=NO1 (centres unmarked),7.41
16,CC1(C)CC(=O)C=C(c2ccc(-c3ccccc3)cc2)C1,11.3
17,CCn1c(C)nc2cc(C(=O)NNC(=S)Nc3ccccc3Cl)ccc21,13.5
18,OC1(c2ccccc2F)CCN(Cc2nnnn2Cc2ccc(F)cc2)CC1,8.42
19,CCC(C)(C)n1nnnc1C(c1cccnc1)N1CCN(c2cccc(C(F)(F)F)c2)CC1 (centres unmarked),1.79
20,CC1CCC(NC(=O)CN(C)S(=O)(=O)c2cccc3cccnc23)CC1 (centres unmarked),9.27
21,Cc1cccc(C)c1NC(=O)COC(=O)c1cccc2c1C(=O)c1ccccc1C2=O,5.96
22,Cc1[nH]c(=S)c(C#N)c(-c2ccco2)c1C(=O)N(C)C,13.7

row,SMILES,"hERG current change (%, negative = inhibition) at 1uM [%]"
1,CCN(CC)C(=O)Cn1cc(SCC(=O)NC2CCCC2)c2ccccc21,-5.69
2,O=C(NC1CCCCCC1)c1ccc[nH]c1=S,12.6
3,C=CCn1c(COc2ccccc2)nnc1SCc1ccc(C#N)cc1,-25.5
4,CCC1(c2ccccc2)NC(=O)N(CC(=O)NCc2ccc(OC)cc2)C1=O (centres unmarked),9.33
5,COc1ccc(NC(=O)NCCN2CCN(c3cccc(Cl)c3)CC2)cc1,-4.03
6,CC(=O)CSc1nc(N(C)C)nc(N(C)C)n1,2.69
7,Cc1ccc2cc(C#N)c(NCc3ccccc3)nc2c1,9.66
8,CC(=O)c1c(C(C)=O)c(C)n(NC(=O)c2ccncc2)c1C,9.11
9,c1cc(CNCCc2ccc3c(c2)OCO3)ccn1,15.2
10,CC(C)NCCCOc1ccc(Cl)cc1Br.O=C(O)C(=O)O,-16.4
11,Cc1onc(-c2ccccc2)c1C(=O)NCc1ccc(Cl)cc1,5.61
12,C/C(=N\NC(=O)C(O)c1ccccc1)c1ccc(Br)s1 (centres unmarked),12.1
13,Cn1c(O)c(N=Nc2ccccc2)c2ccccc21,17.8
14,O=C(NCc1ccccc1)C1=C[C@H](C2CCCCC2)C[C@H](OCCCCO)O1,15.5
15,CC(=O)N1C(=O)/C(=C2\SC(=S)N(c3c(C)n(C)n(-c4ccccc4)c3=O)C2=O)c2ccccc21,5.86
16,COc1ccc(NCCC(O)c2ccc(Cl)cc2)cc1 (centres unmarked),9.22
17,O=S1(=O)C=C(SCc2ccc(F)cc2)Nc2ccccc21,-0.0092
18,COc1ccccc1N1CCN(C(=O)CCc2nnc3ccc(N4CCOCC4)nn23)CC1,7.42
19,O=C(NC1CCCCC1)C(c1cccnc1)N(CCc1ccccc1)C(=O)Cc1cccs1 (centres unmarked),-9.27
20,CCOC(=O)N(CC)c1ccc(C(O)(C(=O)OCC)C(F)(F)F)cc1 (centres unmarked),12.8
21,COc1cc(/C=C/C(=O)O)ccc1OS(=O)(=O)c1cc(C)ccc1C,10.5
22,CN(Cc1ccccc1)C(=O)C1CCCN(Cc2ccc(Cl)cc2)C1.O=C(O)C(=O)O (centres unmarked),-44.1

row,SMILES,"hERG current change (%, negative = inhibition) at 1uM [%]"
1,COc1cc(NC(=O)c2ccccc2F)c(OC)cc1NC(=O)CN1CCCCC1.Cl,1.58
2,COC(=O)c1ccc(NC(=O)COc2ccc3c(c2)OCO3)cc1,3.83
3,C=CCn1c(=O)c(C(=O)Nc2ccccc2C(=O)OCC)c(O)c2ccccc21,4.69
4,Nc1c(S(=O)(=O)c2ccccc2)c2nc3ccccc3nc2n1/N=C/c1ccco1,16.2
5,Cc1ccccc1OCC(O)Cn1c(Br)nc2c1c(=O)n(C)c(=O)n2C (centres unmarked),15.3
6,COc1cc(/C=C/C(=O)O)cc(S(=O)(=O)Nc2ccc3c(c2)OCO3)c1OC,5.49
7,COc1ccc(NC(=O)c2nnn(CC(=O)Nc3ccc4c(c3)OCO4)c2N)c(OC)c1,14
8,CCOC(=O)c1cccc(NC(=O)CSc2nnc(-c3ccoc3C)n2CC)c1,7.74
9,COc1ccc(/C=C(\CC(=O)O)c2nc3ccccc3s2)cc1O,11.5
10,Cc1cc(=O)oc2cc(OCC(=O)N/N=C/c3ccccc3O)ccc12,18.3
11,CC(=O)c1ccc(N2CCN(C(=O)c3ccc(-c4ccccc4)cc3)CC2)cc1,14.3
12,CN1CCC(N(C)CC(=O)Nc2cccc(Oc3ccccc3)c2)CC1.O=C(O)C(=O)O,19.8
13,Cc1[nH]c2ccc(-c3nnc(SCC(=O)c4ccccc4F)o3)cc2c1C,5.65
14,Cc1ccc(-n2c(CC#N)n[nH]c2=S)c(C)c1,10.4
15,COCCCNC(=O)c1ccc2c(c1)ncn2-c1ccc(C)cc1C,15
16,CCN(CC)C(=O)C1CCCN(c2ccc([N+](=O)[O-])cc2[N+](=O)[O-])C1 (centres unmarked),-5.42
17,O=C(Oc1cccc2cccnc12)c1ccc2c(c1)OCCO2,5.34
18,COc1ccc(N(CCN2C(=O)c3ccccc3C2=O)C(=O)c2cccc([N+](=O)[O-])c2)cc1,0.842
19,O=C(NCc1ccccc1)c1cc(-c2cccs2)on1,11.4
20,COc1cccc(NC(=O)c2cccc(C)c2[N+](=O)[O-])c1,4.58
21,S=C(c1nc2ccccc2[nH]1)N1CCOCC1,6.34
22,O=C(O)c1ccccc1C(=O)Nc1ccccc1,0.987

row,SMILES,"hERG current change (%, negative = inhibition) at 1uM [%]"
1,O=C(NC1CCN(S(=O)(=O)c2ccc(Cl)cc2)CC1)C1CCCCC1,6.91
2,Cc1cc(C)c2c(n1)SCC(=O)N2CC(=O)Nc1cccc(Cl)c1,4.74
3,O=C(NCCN1CCN(c2ccccc2)CC1)Nc1ccccc1Br,10.3
4,O=C(CCS(=O)(=O)c1ccccc1)Nc1ccc(N2CCOCC2)cc1,6.38
5,CC(=O)c1ccc(S(=O)(=O)NCC2(N3CCOCC3)CCCCC2)cc1,4.95
6,Cc1nc2ccc(NS(=O)(=O)c3ccc4c(c3)OCCO4)cc2s1,4.93
7,CC(=O)c1cc(C)ccc1OC(=O)c1ccncc1,11.6
8,O=C(CN1CCC(n2nnc3cc(C(F)(F)F)ccc32)CC1)NCc1cccs1,-56.9
9,Cc1nc(C)n(CC(O)COc2ccc3cc(Br)ccc3c2)n1 (centres unmarked),3.72
10,O=C(CCC(=O)N(c1ccccc1)C(C(=O)NC1CCCC1)c1ccncc1)Nc1cccnc1 (centres unmarked),7.56
11,Cn1cccc1Cc1nnc(SCC(=O)NCCc2ccccc2)n1-c1ccc(F)cc1,-6.24
12,O=C(Nc1cccnc1)c1ccc2nc(-c3ccccc3)c(-c3ccccc3)nc2c1,8.69
13,Cc1ccc(CSCCNC(=O)CN(c2ccccc2)S(C)(=O)=O)cc1,8.99
14,CCOc1ccc(NC(=O)N(CCC(C)C)C(C)c2ccco2)cc1 (centres unmarked),2.6
15,O=C(COC(=O)CC(NC(=O)c1ccccc1Cl)c1ccccc1)Nc1cccc(F)c1 (centres unmarked),-1.8
16,CSc1n[nH]c2nc3c(c(=O)n12)C1(CCCC1)Cc1ccccc1-3,3.82
17,O=C(OCC(=O)N1CCCC1)c1cc2c(cc1[N+](=O)[O-])OCCO2,2.43
18,CC1CN(C(=O)COC(=O)c2cc(S(N)(=O)=O)c(Cl)cc2Cl)CC(C)O1 (centres unmarked),6.48
19,COc1ccc(CNC(=O)CN(CC2CCCO2)C(=O)CNS(=O)(=O)c2ccccc2)cc1 (centres unmarked),-0.6
20,NC(=O)c1ccccc1NC(=O)CS(=O)(=O)Cc1ccccc1,12.9
